Patent US20240101716A1 (LA NOVA MEDICINES DEVELOPMENT, published 2024)
Changes are numbered by the printed parent chain.

B1: AS06618 HCAb (Fc fusion)
chain: EVQLVESGGRLVRAGDSLRLSCAASGRTFLSYAVGWFRQAPGTEREFVAGIRWSGGYTDYAEAVKGRFTISRDNAKNTVYLQMNSLKPEDTAVYYCAAHRTIATIPEKYEYEYWGQGTQVTVSS[skipping human IgG1 Fc]
notes: heavy chain-only antibody: sdAb fused with human Fc region
B2: AS06682 HCAb (Fc fusion)
chain: B1 chain with E1A, R10G, R13Q, A23T, G56E, Y57H, E62A, A63S, R100T, E107K
notes: as for B1
B3: AS12003 HCAb (Fc fusion)
chain: B1 chain with R10G, R13Q, Y57S, E62D, A63S, I105V, E107N, E112D, Y113T
notes: as for B1
B4: AS06750VH2 HCAb (Fc fusion)
chain: EVQLVESGGGLVQPGGSLRLSCAASGRTFLTYAVGWFRQAPGKGLEWVAGIRWSGGYTDYADSVKGRFTISRDNSKNTVYLQMNSLRAEDTAVYYCAAHRTIATIPEKYEYEYWGQGTLVTVSS[skipping human IgG1 Fc]
notes: humanized HCAb: sdAb fused with human Fc region
B5: AS06750VH11 HCAb (Fc fusion)
chain: B4 chain with L45R, W47F, A49S, S75A, V79L, A88P
notes: as for B4
B6: AS06730S HCAb (Fc fusion)
chain: QVQLVESGGGLVQAGGSLRLSCAASGRTFITYAIGWFRQAPGKEREFVSAISWSGSMTSYADSVKGRFTISRDNAKNTVYLQMNGLKPEDTAVYYCAAHRGAIAPIAQSVYTNWGQGTQVTVSS[skipping human IgG1 Fc]
notes: variant HCAb: sdAb fused with human Fc region
B7: AS06730SVH12 HCAb (Fc fusion)
chain: B6 chain with Q1E, A14P, E44G, V79L, G85S, K87R, Q119L
notes: as for B4
B8: AS11948S HCAb (Fc fusion)
chain: EVQLVESGGGLVQAGDSLRLSCVASGRTFVTYGMGWFRQAPGKEREFVAAISWSGSMTSYGDSVKGRFAISRDNAKNTVYLQMNSLKPEDTAVYYCAAALGAVVYTTREPYTYWGRGTQVTVSS[skipping human IgG1 Fc]
notes: as for B6
B9: AS11948SVH12 HCAb (Fc fusion)
chain: B8 chain with A14P, D16G, V23A, E44G, A49S, A69T, V79L, K87R, R116Q, Q119L
notes: humanized HCAb: sdAb fused with human Fc region; also called AS11948VH12 HCAb; AS11948SV12
B10: AS11948SVH12M8 HCAb (Fc fusion)
chain: EVQLVESGGGLVQPGGSLRLSCAASGRTFVTYGMGWFRQAPGKGREFVSAISWSGSITSYGDSVKGRFTISRDNAKNTLYLQMNSLRPEDTAVYYCAAALGAVVYTTREPYTYWGQGTLVTVSS[skipping human IgG1 Fc]
notes: humanized HCAb: sdAb fused with human Fc region; also called AS11948VH12M8 HCAb; AS11948SV12M8
B11: AS06730A HCAb (Fc fusion)
chain: B6 chain with S52A
notes: as for B6
B12: AS06730Q HCAb (Fc fusion)
chain: B6 chain with S52Q
notes: as for B6
B13: AS06730QVH2 HCAb (Fc fusion)
chain: EVQLVESGGGLVQPGGSLRLSCAASGRTFITYAIGWFRQAPGKGLEWVSAIQWSGSMTSYADSVKGRFTISRDNSKNTVYLQMNSLRAEDTAVYYCAAHRGAIAPIAQSVYTNWGQGTLVTVSS[skipping human IgG1 Fc]
notes: as for B4
B14: AS06730QVH3a HCAb (Fc fusion)
chain: B13 chain with W47F
notes: as for B4
B15: AS06730SVH12M8 HCAb (Fc fusion)
chain: B13 chain with L45R, W47F, Q52S, M57I, S75A, V79L, A88P
notes: as for B4
B16: AS06730SVH12M9 HCAb (Fc fusion)
chain: B13 chain with L45R, W47F, Q52S, M57L, S75A, V79L, A88P
notes: as for B4
B17: AS06730QVH1 HCAb (Fc fusion)
chain: B13 chain with F37V, V79L, A98K
notes: as for B4
B18: AS06750VH3 HCAb (Fc fusion)
chain: B4 chain with W47F
notes: as for B4
B19: AS06750VHa HCAb (Fc fusion)
chain: B4 chain with A23T, W47F
notes: as for B4
B20: AS06750VH1 HCAb (Fc fusion)
chain: B4 chain with F37V, A49S, V79L, A98K
notes: as for B4
B21: AS11948A HCAb (Fc fusion)
chain: B8 chain with S52A
notes: as for B6
B22: AS11948Q HCAb (Fc fusion)
chain: B8 chain with S52Q
notes: as for B6
B23: AS11948QVH2 HCAb (Fc fusion)
chain: B10 chain with R45L, S49A, S52Q, I57M, A75S, L79V, P88A
notes: as for B4
B24: AS11948QVHa HCAb (Fc fusion)
chain: B10 chain with A23V, S52Q, I57M, A75S, L79V, P88A
notes: as for B4
B25: AS11948SVH12M9 HCAb (Fc fusion)
chain: B10 chain with I57L
notes: humanized HCAb: sdAb fused with human Fc region; also called AS11948SV12M9
B26: AS11948QVH1 HCAb (Fc fusion)
chain: B10 chain with F37V, R45L, F47W, S52Q, I57M, A75S, P88A, A98K
notes: as for B4

Molecular target: T1, human PD-L1 on CHO-K1 cells (human, UniProt Q9NZQ7)
Test: cell-based or functional assay

| Binder | EC50 of PD-L1-based blockade assay (luciferase reporter) |
| --- | --- |
| B1 | 6.45 nM |
| B2 | 6.66 nM |
| B3 | 9.34 nM |

Molecular target: T1, human PD-L1 on CHO-K1 cells
T1 sequence (Q9NZQ7 19-290): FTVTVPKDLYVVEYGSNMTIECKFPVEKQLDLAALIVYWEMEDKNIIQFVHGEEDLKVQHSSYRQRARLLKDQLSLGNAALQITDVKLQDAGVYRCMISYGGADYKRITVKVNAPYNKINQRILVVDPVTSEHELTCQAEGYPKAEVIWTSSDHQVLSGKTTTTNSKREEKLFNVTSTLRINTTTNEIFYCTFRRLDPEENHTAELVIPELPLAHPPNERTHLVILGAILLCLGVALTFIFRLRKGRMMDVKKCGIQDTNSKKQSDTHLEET
Test: cell-based or functional assay
Remark: another data set of the same source

| Binder | EC50 of PD-L1-based blockade assay (luciferase reporter) |
| --- | --- |
| B4 | 4.44 nM |
| B5 | 3.61 nM |
| B6 | 2.54 nM |
| B7 | 4.6 nM |
| B8 | 3.28 nM |
| B9 | 2.91 nM |
| B10 | 7.86 nM |

Molecular target: T2, recombinant human PD-L1 His protein (human, UniProt Q9NZQ7 in part)
T2 construct: not shown: His tag
Test: SPR Biacore T200, PD-L1 His on chip, HCAb analyte
Method: Affinity constant (Kd) of each sdAb and HCAb was determined by surface plasmon resonance (SPR) on a BIAcore T200 instrument. Briefly, PD-L1 His was amine-coupled to a CMS sensor chip at a density of no higher than 100 RU. […] Flow rate was 30 μl/min in all experiments. Association and dissociation phases were 5 and 10 min, respectively. The chip was regenerated using Glycine/HCl pH 1.5. Binding curves at different concentrations of sdAbs and HCAbs were used to calculate the kinetic parameters kₒₙ, koff and KD.

| Binder | Kd | koff | kon |
| --- | --- | --- | --- |
| B1 | 0.0335 nM | 1.41e-05 s⁻¹ | 421000 M⁻¹ s⁻¹ |
| B2 | 0.0557 nM | 3.34e-05 s⁻¹ | 599000 M⁻¹ s⁻¹ |
| B3 | 0.434 nM | 0.000247 s⁻¹ | 569000 M⁻¹ s⁻¹ |

Molecular target: T2, recombinant human PD-L1 His protein
T2 sequence (Q9NZQ7 19-239 limits assumed): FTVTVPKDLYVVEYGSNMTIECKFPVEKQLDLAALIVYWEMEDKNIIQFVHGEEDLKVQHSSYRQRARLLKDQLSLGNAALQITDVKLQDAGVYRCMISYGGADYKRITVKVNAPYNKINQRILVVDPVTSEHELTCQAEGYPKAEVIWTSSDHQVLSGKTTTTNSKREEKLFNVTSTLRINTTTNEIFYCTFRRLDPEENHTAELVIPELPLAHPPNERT
Test: SPR affinity ranking, PD-L1/His as ligand on chip

| Binder | Kd | koff | kon |
| --- | --- | --- | --- |
| B11 | 34.6 nM | 0.0241 s⁻¹ | 696000 M⁻¹ s⁻¹ |
| B12 | 3.21 nM |  |  |
| B13 | 4.14 nM | 0.00219 s⁻¹ | 530000 M⁻¹ s⁻¹ |
| B14 | 91.4 nM | 0.212 s⁻¹ | 2.32e+06 M⁻¹ s⁻¹ |
| B6 | 2.51 nM | 0.000573 s⁻¹ | 229000 M⁻¹ s⁻¹ |
| B7 | 6.1 nM | 0.0018 s⁻¹ |  |
| B15 | 21 nM | 0.0065 s⁻¹ | 310000 M⁻¹ s⁻¹ |
| B16 | 37 nM | 0.012 s⁻¹ | 320000 M⁻¹ s⁻¹ |
| B17 | 2.24 nM | 0.00579 s⁻¹ | 2.58e+06 M⁻¹ s⁻¹ |

Molecular target: T2, recombinant human PD-L1 His protein
Test: SPR affinity ranking, PD-L1/His as ligand on chip
Remark: another data set of the same source

| Binder | Kd | koff | kon |
| --- | --- | --- | --- |
| B4 | 1.55 nM | 0.000329 s⁻¹ | 212000 M⁻¹ s⁻¹ |
| B18 | 1.75 nM | 0.000355 s⁻¹ | 202000 M⁻¹ s⁻¹ |
| B5 | 1.9 nM | 0.00027 s⁻¹ | 140000 M⁻¹ s⁻¹ |
| B19 | 1.63 nM | 0.000308 s⁻¹ | 189000 M⁻¹ s⁻¹ |
| B20 | 35.7 nM | 0.00253 s⁻¹ | 70800 M⁻¹ s⁻¹ |

Molecular target: T2, recombinant human PD-L1 His protein
Test: SPR affinity ranking, PD-L1/His as ligand on chip
Remark: another data set of the same source

| Binder | Kd | koff | kon |
| --- | --- | --- | --- |
| B21 | 95.5 nM | 0.196 s⁻¹ | 2.05e+06 M⁻¹ s⁻¹ |
| B22 | 155 nM | 0.0465 s⁻¹ | 301000 M⁻¹ s⁻¹ |
| B23 | 89.8 nM | 0.195 s⁻¹ | 2.17e+06 M⁻¹ s⁻¹ |
| B24 | 10.6 nM |  |  |
| B8 | 3.8 nM | 0.000861 s⁻¹ | 226000 M⁻¹ s⁻¹ |
| B9 | 3.7 nM | 0.0015 s⁻¹ | 400000 M⁻¹ s⁻¹ |
| B10 | 22 nM | 0.0095 s⁻¹ | 430000 M⁻¹ s⁻¹ |
| B25 | 16 nM | 0.0063 s⁻¹ | 400000 M⁻¹ s⁻¹ |
| B26 | 2.41 nM | 0.000799 s⁻¹ | 332000 M⁻¹ s⁻¹ |

Molecular target: T2, recombinant human PD-L1 His protein
Test: SPR Biacore T200, PD-L1 His on chip, HCAb analyte
Remark: another data set of the same source
Method: (§1) Association and dissociation phases were 5 and 10 min, respectively. The chip was regenerated using Glycine/HCl pH 1.5.

| Binder | Kd | koff | kon |
| --- | --- | --- | --- |
| B4 | 1.7 nM | 0.00033 s⁻¹ | 200000 M⁻¹ s⁻¹ |
| B5 | 3.2 nM | 0.0003 s⁻¹ | 95000 M⁻¹ s⁻¹ |
| B6 | 4.9 nM | 0.00035 s⁻¹ | 71000 M⁻¹ s⁻¹ |
| B8 | 3.8 nM | 0.0011 s⁻¹ | 290000 M⁻¹ s⁻¹ |

Molecular target: T2, recombinant human PD-L1 His protein
Test: SPR Biacore T200, HCAb captured by anti-human IgG, PD-L1 His analyte
Method: as §1

| Binder | Kd | koff | kon |
| --- | --- | --- | --- |
| B7 | 6.1 nM | 0.0018 s⁻¹ | 300000 M⁻¹ s⁻¹ |
| B15 | 18 nM | 0.0065 s⁻¹ | 360000 M⁻¹ s⁻¹ |
| B16 | 30 nM | 0.012 s⁻¹ | 400000 M⁻¹ s⁻¹ |
| B9 | 3.7 nM | 0.0015 s⁻¹ | 400000 M⁻¹ s⁻¹ |
| B10 | 22 nM | 0.0095 s⁻¹ | 430000 M⁻¹ s⁻¹ |
| B25 | 16 nM | 0.0063 s⁻¹ | 400000 M⁻¹ s⁻¹ |
